PubChem BioAssay AID504333 (National Center for Advancing Translational Sciences (NCATS), 2011)
Hit rate of the full screen: of about 360,000 compounds, about 16,000 (4.4%) were called active. Inconclusive means that the source gave no clear call. Such entries were picked first, then a sample of the others. Calls follow the shape of the dose curve; as a rule, active = well fitted inhibition curve with a large enough effect; inconclusive = small, poorly fitted or top-dose-only effect; inactive = no such curve, though single readings can be large or run the other way. Potencies beside an inconclusive call are fits to weak or partial responses and may not hold up.

target: Bromodomain adjacent to zinc finger domain protein 2B (Homo sapiens) (UniProt Q9UIF8); assay: qHTS Assay for Inhibitors of BAZ2B; conditions: AlphaScreen BAZ2B-H3K14Ac peptide displacement; activity change, negative = inhibition: at 114 µM (top of the series); also: nearly all actives have a fitted effect of over 60% in size
UniProt Q9UIF8, sequence (Q9UIF8 whole entry, looked up, the tested form may be a part): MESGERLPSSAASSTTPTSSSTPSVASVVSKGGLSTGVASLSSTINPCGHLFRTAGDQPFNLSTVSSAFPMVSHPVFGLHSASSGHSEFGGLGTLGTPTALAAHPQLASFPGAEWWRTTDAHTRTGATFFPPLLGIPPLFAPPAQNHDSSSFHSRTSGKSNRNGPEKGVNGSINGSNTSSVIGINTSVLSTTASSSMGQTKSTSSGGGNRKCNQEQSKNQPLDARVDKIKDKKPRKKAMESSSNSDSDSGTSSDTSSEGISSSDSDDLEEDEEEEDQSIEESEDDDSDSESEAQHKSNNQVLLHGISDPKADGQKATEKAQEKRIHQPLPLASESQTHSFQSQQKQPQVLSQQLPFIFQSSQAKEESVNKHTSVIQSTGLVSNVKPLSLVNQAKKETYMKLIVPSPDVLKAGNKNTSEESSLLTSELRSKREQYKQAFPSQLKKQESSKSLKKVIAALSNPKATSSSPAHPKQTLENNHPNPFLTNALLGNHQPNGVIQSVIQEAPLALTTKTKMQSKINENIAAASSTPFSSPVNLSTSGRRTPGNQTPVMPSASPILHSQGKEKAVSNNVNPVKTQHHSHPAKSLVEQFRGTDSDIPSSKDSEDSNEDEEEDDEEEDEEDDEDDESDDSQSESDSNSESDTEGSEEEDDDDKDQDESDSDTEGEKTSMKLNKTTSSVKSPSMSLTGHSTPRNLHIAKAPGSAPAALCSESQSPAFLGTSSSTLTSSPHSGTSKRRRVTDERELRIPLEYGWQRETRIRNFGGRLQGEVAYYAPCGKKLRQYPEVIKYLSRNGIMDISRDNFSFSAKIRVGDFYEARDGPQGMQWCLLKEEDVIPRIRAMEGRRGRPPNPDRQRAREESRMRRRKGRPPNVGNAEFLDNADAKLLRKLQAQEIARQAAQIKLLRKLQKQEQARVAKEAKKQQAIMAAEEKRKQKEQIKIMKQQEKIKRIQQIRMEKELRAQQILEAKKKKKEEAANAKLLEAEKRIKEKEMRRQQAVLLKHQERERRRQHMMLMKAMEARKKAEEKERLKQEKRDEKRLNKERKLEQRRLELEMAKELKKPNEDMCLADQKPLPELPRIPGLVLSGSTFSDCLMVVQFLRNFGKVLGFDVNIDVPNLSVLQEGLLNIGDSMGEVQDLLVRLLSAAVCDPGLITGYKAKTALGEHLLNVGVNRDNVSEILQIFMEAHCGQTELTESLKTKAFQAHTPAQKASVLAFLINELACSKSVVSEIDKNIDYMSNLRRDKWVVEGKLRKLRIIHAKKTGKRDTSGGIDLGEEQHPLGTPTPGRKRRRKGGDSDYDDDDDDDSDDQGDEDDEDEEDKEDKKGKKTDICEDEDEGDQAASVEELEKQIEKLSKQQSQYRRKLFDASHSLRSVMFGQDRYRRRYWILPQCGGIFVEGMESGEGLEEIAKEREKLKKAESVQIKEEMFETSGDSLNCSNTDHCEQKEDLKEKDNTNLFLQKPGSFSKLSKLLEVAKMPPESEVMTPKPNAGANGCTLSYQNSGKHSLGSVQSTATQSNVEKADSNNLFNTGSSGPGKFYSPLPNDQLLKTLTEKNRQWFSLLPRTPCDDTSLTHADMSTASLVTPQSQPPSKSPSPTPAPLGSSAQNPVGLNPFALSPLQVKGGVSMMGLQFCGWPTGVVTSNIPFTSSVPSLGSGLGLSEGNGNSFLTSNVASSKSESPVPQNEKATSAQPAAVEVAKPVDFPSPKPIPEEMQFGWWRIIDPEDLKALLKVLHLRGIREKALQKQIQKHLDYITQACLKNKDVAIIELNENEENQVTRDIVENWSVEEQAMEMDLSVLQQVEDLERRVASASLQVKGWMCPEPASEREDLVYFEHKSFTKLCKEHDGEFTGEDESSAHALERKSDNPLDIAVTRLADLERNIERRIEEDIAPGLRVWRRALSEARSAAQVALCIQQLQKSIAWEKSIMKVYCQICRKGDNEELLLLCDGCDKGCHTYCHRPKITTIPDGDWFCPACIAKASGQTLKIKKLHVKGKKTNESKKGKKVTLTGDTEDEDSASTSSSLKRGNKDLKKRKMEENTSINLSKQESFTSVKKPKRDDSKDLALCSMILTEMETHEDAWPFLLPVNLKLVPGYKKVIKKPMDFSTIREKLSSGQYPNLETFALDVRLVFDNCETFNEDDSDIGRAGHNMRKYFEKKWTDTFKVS
Outline: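 BAZ2B 50 nM plus b-H3(5-23)K14Ac 50 nM, PBS pH 7.4/0.01% Tween-20, 30 min RT; compound added (max 110 uM), 30 min RT; streptavidin donor/Ni-chelate acceptor beads 10 ug/mL final, 20 min dark; AlphaScreen read.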
% is scaled to controls: 0 for no effect and ±100 for the full control effect; potency is read from the fitted curve at half-maximal effect; tags tell the direction and shape of the fitted curve.

| Compound | activity change, negative = inhibition | Potency |
| --- | --- | --- |
| Cc1c(NC(=O)c2cc(-c3ccccc3)on2)c(=O)n(-c2ccccc2)n1C | inactive: 7.77% |  |
| COc1ccc(N2CCN(C(=O)c3cccc(Cn4cc(Cl)cn4)c3)CC2)cc1 |  | inconclusive: 89.1 µM [inhibitor, single point] |
| C/C(=N\Nc1cc(N2CCOCC2)ncn1)c1ccccc1 | inactive: 8.31% |  |
| Clc1ccc(-c2[nH]ncc2N=Nc2ccccc2)cc1 |  | inconclusive: 28.2 µM [inhibitor, full curve] |
| COCCn1nnnc1C(c1ccccc1)N1CCN(C(=O)c2ccco2)CC1 (configuration not stated) |  | inconclusive: 79.4 µM [inhibitor, single point] |
| CCC(c1nnnn1CCc1ccccc1)N(Cc1ccco1)Cc1cc2cc(C)cc(C)c2[nH]c1=O (configuration not stated) |  | inconclusive: 79.4 µM [inhibitor, single point] |
| Cc1occc1-c1nnc(SCc2cc(=O)n3cc(Br)ccc3n2)n1C |  | active: 56.2 µM |
| COc1ccc(CN2C=C3C(=O)C(C)(OC(=O)C4CCCC4)C(=O)C=C3C=C2c2ccsc2)cc1 (configuration not stated) |  | inconclusive: 44.7 µM [inhibitor, partial curve] |
| COc1ccc(NC(=O)c2ccc(NC(=O)CSc3nccc(=O)[nH]3)cc2)cc1 |  | active: 56.2 µM |
| C/C(=N\Nc1nc2ccccc2s1)c1ccc(Br)s1 |  | inconclusive: 39.8 µM [inhibitor, partial curve] |
| Cc1c(C(=O)NC2CC(=O)N(c3ccc4c(c3)OCCO4)C2)cccc1[N+](=O)[O-] (configuration not stated) | inactive: 5.72% |  |
| Fc1ccc(-c2cnn3c(-c4ccncc4)ccnc23)cc1 |  | inconclusive: 22.4 µM [inhibitor, full curve, poor fit] |
| O=[N+]([O-])c1ccc(Sc2nnnn2-c2ccccc2)c(Cl)c1 |  | inconclusive: 70.8 µM [inhibitor, single point] |
| O=C(NCC1CCCO1)C(=O)N/N=C/c1cc(Cl)ccc1O (configuration not stated) |  | inconclusive: 44.7 µM [inhibitor, partial curve] |
| CC1CCc2c(sc(NC(=O)c3ccccc3)c2C(=O)Nc2ccccc2)C1 (configuration not stated) | inactive: 0.852% |  |
| CC(C)/C=C1\CC/C(=C\c2cccnc2)C1=O |  | inconclusive: 79.4 µM [inhibitor, single point] |
| Cc1ccc(/C=N/N2CCN(Cc3ccccc3)CC2)s1 |  | active: 7.08 µM |
| COc1ccc(CSC(=N)N)cc1[N+](=O)[O-] | inactive: -1.72% |  |
| Cc1ccc(CSCC(=O)NCc2ccco2)cc1 |  | inconclusive: 44.7 µM [inhibitor, partial curve] |
| COc1cccc(NC(=O)C(=O)NCC(c2cccnc2)N2CCN(c3ccccc3)CC2)c1 (configuration not stated) |  | inconclusive: 89.1 µM [inhibitor, single point] |
| O=C(Cc1ccccc1)NNc1c2ccccc2nc2ccccc12 |  | inconclusive: 12.6 µM [inhibitor, full curve, poor fit] |
| Cc1ccc(NC(=O)COC(=O)c2cc(Cl)ccc2[N+](=O)[O-])cc1 |  | inconclusive: 70.8 µM [inhibitor, single point] |
| Nc1nc(N)nc(-c2ccccn2)n1 |  | active: 20 µM |
| c1ccc(CSc2nnnn2-c2ccccc2)cc1 | inactive: 148% |  |

| Compound | activity change, negative = inhibition | Potency |
| --- | --- | --- |
| CCN1C(=O)/C(=C2\C=Cc3ccccc3N2CC)SC1=S |  | active: 8.91 µM |
| COc1cccc(/C=N/Nc2nc(Nc3ccc([N+](=O)[O-])cc3)nc(N3CCCC3)n2)c1O |  | inconclusive: 28.2 µM [inhibitor, full curve] |
| CC(=O)Oc1ccc(NC(=O)Cc2ccccc2)c(C(=O)O)c1 |  | inconclusive: 79.4 µM [inhibitor, single point] |
| Cc1cc(Br)c(NC(=O)CCNC(=O)OCc2ccccc2)cc1C |  | inconclusive: 89.1 µM [inhibitor, single point] |
| Cc1ccc(N=C2NC(=O)/C(=C/c3cccnc3)S2)c(C)c1 | inactive: -20.7% |  |
| Cc1ccc(-c2cc(-c3ccc(Cl)cc3)c(C#N)c(N)n2)o1 |  | active: 56.2 µM |
| CC(O)c1nc2ccccc2n1C1CCCCC1 (configuration not stated) | inactive: 7.64% |  |
| COc1ccc(/C=C/C2=CC(C)(C)NC(=S)N2)c(OC)c1 |  | active: 39.8 µM |
| CCOc1ccc(Nc2nc(-c3sc(N)nc3C)cs2)cc1 |  | active: 44.7 µM |
| N#Cc1c(NC(=O)/C=C/c2ccco2)sc2c1CCCC2 |  | inconclusive: 44.7 µM [inhibitor, partial curve] |
| COc1ccc2[nH]c3c(c2c1)CCN1C(=O)N([C@@H](C)C(=O)NC2CCN(Cc4ccccc4)CC2)C(=O)[C@]31C |  | active: 50.1 µM |
| COC(=O)[C@H](C)NC(=O)c1cc2c(cn1)[nH]c1ccccc12 |  | inconclusive: 50.1 µM [inhibitor, partial curve] |
| COCCNC(=O)CSc1nc(-c2ccc(F)cc2)[nH]c1-c1ccc(Cl)cc1 |  | inconclusive: 35.5 µM [inhibitor, full curve] |
| Cc1ccccc1OCC(=O)OCC(=O)Nc1ncc(Cl)c(C)c1Cl |  | active: 56.2 µM |
| Cc1cc(C)cc(OCC(=O)Nc2cccc(-c3nc4ncccc4o3)c2)c1 | inactive: -2.83% |  |
| C=CCNc1nc(-c2ccccn2)nnc1-c1ccccc1 |  | active: 0.891 µM |
| C[N+](C)(C)C(Cc1ccccc1)C(=O)[O-] (configuration not stated) |  | inconclusive: 89.1 µM [inhibitor, single point] |
| COc1ccc(OC)c(C2CC(=O)N(c3cccc(C)c3)C3=C2C(=O)OC3)c1 (configuration not stated) |  | inconclusive: 79.4 µM [inhibitor, single point] |
| CCN(CC(=O)Nc1cccc(OC)c1)CC(=O)Nc1ccc(Br)c(C)c1 |  | inconclusive: 70.8 µM [inhibitor, single point] |
| COC(=O)C1CCN(C(=O)Cc2c(OC)ccc3cc(Br)ccc23)CC1 |  | inconclusive: 11.2 µM [inhibitor, partial curve] |
| O=c1c2cc(O)c(O)cc2oc2cc(O)c(C3OC(CO)C(O)C(O)C3O)c(O)c12 (configuration not stated) |  | active: 12.6 µM |
| O=C(NC(Cc1ccccc1)c1nc2ccccc2[nH]1)C1CC(=O)N(c2ccc3c(c2)OCCO3)C1 (configuration not stated) |  | inconclusive: 89.1 µM [inhibitor, single point] |
| COc1ccccc1CNC(=O)CSc1ncc2c(n1)-c1ccccc1N(Cc1ccc(C)cc1)S2(=O)=O |  | inconclusive: 25.1 µM [inhibitor, single point] |
| Cc1nc2nc[nH]n2c(=O)c1C/C=C/c1ccccc1 |  | inconclusive: 89.1 µM [inhibitor, single point] |

| Compound | activity change, negative = inhibition | Potency |
| --- | --- | --- |
| O=C(NC(=S)Nc1cc(Cl)ccc1N1CCOCC1)c1ccccc1[N+](=O)[O-] |  | inconclusive: 25.1 µM [inhibitor, full curve] |
| CNC(=S)N1CCN(c2c(F)cc3c(=O)c(C(=O)O)cn(C4CC4)c3c2OC)CC1C (configuration not stated) |  | inconclusive: 5.01 µM [inhibitor, full curve] |
| CCc1ccc(CNC(=O)c2ccc3c(c2)nc2n3CCOC2)cc1 | inactive: 5.3% |  |
| Cc1ccc(C)c(N2CCN(c3ncccc3[N+](=O)[O-])CC2)c1 |  | active: 31.6 µM |
| c1ccc(CNc2nc(NCc3ccccc3)c3ccccc3n2)cc1 |  | inconclusive: 79.4 µM [inhibitor, partial curve] |
| Cc1cccn2c(=O)c(/C=C(\C#N)C(N)=O)c(N3CCN(Cc4ccc5c(c4)OCO5)CC3)nc12 |  | inconclusive: 44.7 µM [inhibitor, partial curve] |
| Fc1ccc(-c2cc(-c3nc(-c4cccc(Cl)c4)no3)[nH]n2)cc1 | inactive: 1.59% |  |
| COc1ccc(S(=O)(=O)NCc2ccncc2)cc1NC(=O)c1ccccc1F | inactive: -7.3% |  |
| COc1cc(OC)c(OC)cc1CN1CCc2nc(N3CCN(c4ncccn4)CC3)ncc2C1 |  | inconclusive: 39.8 µM [inhibitor, partial curve] |
| COc1ccccc1NC(=O)CCc1nnc2ccc(N3CCC4(CC3)OCCO4)nn12 |  | inconclusive: 89.1 µM [inhibitor, single point] |
| CCCCCCOC(=O)C1=C(C)NC(=O)NC1c1ccc2c(c1)OCO2 (configuration not stated) | inactive: -20% |  |
| COc1ccc(C/C(N)=N/OC(=O)c2ccc(Cl)cc2)cc1 |  | inconclusive: 89.1 µM [inhibitor, single point] |
| Cc1c2cnn(CC(=O)Nc3c(F)c(F)cc(F)c3F)c(=O)c2c(C)n1Cc1ccccc1F |  | active: 56.2 µM |
| COc1ccc(-c2nnn(CC(=O)Nc3ccc4c(c3)OCCO4)n2)cc1OC | inactive: -4.16% |  |
| COc1ccc(Oc2nnc(-c3ccccc3)cc2C#N)cc1 |  | inconclusive: 31.6 µM [inhibitor, single point] |
| CCc1ccccc1OCCCCN1CCCCC1 |  | inconclusive: 89.1 µM [inhibitor, single point] |
| Fc1ccccc1OCCCCN1CCCCC1 |  | inconclusive: 89.1 µM [inhibitor, single point] |
| Cc1[nH]n(-c2ccccc2)c(=O)c1C=Nc1ccc(S(=O)(=O)NC(N)=O)cc1 | inactive: -22.3% |  |
| CCC(C)c1ccc(OCC(=O)Nc2ccc(CN3CCOCC3)cc2)cc1 (configuration not stated) |  | inconclusive: 70.8 µM [inhibitor, single point] |
| CCCCCCc1cc2cc(-c3nnc(-c4ccccc4OC)o3)c(=O)oc2cc1O |  | inconclusive: 89.1 µM [inhibitor, single point] |
| COc1ccc(CCNC(=O)CSc2nc3ccccc3c3nc(CCN4CCCCC4)nn23)cc1OC |  | inconclusive: 79.4 µM [inhibitor, single point] |
| O=C(c1ccc(-c2cccc(C(F)(F)F)c2)o1)N1CCOCC1 | inactive: 0.457% |  |
| Nc1nc(-c2cccc(NS(=O)(=O)c3ccccc3)c2)cs1 |  | inconclusive: 50.1 µM [inhibitor, partial curve] |
| CN(C(=S)Nc1ccc(Oc2ccccc2)cc1)c1ccc(O)cc1 |  | inconclusive: 50.1 µM [inhibitor, partial curve] |
